How the values were obtained:
Experiment in all cases: suspension array (Luminex), protein coupled to beads, PE anti-human IgG detection
[1] = target: T1, human ROBO2-Fc chimera (R&D systems, Cat#3147-RB-050) (human, UniProt Q9HCK4 22-859)
T1 construct: Purchased reagent coupled to Luminex microspheres; also called roundabout homolog 2; not shown: Fc portion of the purchased chimera
T1 sequence (looked up): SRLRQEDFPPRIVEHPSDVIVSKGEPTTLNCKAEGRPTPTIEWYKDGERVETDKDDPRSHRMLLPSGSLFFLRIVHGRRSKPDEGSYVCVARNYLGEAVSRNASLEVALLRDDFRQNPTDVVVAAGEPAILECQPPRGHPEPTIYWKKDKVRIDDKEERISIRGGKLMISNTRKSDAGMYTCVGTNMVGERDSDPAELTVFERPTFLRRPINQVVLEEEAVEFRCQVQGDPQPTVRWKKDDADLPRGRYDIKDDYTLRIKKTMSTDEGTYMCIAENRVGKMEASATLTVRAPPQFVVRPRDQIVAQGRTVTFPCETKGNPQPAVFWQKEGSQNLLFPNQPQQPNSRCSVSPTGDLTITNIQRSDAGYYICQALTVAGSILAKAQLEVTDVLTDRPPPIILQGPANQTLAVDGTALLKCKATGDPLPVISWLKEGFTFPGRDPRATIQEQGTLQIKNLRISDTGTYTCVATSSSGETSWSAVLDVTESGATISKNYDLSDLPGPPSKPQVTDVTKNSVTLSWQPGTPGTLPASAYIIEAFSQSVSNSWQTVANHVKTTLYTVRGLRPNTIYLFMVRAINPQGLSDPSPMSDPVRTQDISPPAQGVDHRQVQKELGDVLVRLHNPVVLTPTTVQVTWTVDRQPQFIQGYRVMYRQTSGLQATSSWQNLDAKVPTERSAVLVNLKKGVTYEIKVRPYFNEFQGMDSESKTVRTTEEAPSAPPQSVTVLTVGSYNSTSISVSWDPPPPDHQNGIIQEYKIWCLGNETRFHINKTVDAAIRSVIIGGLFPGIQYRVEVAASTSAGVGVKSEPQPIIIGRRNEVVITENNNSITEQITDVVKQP
Method: (§1) An anti-human IgG antibody labeled with phycoerythrin (PE) was then added to detect AGEN2034w. Binding was assessed by a Luminex® 200 detection system.

[2] = target: T2, human SIRPγ-His chimera (Sino Biologicals, Cat#11828-H08H) (human, UniProt Q9P1W8 29-360)
T2 construct: Purchased reagent coupled to Luminex microspheres; also called signal regulatory protein gamma; not shown: His tag
T2 sequence (Q9P1W8 29-360 limits assumed): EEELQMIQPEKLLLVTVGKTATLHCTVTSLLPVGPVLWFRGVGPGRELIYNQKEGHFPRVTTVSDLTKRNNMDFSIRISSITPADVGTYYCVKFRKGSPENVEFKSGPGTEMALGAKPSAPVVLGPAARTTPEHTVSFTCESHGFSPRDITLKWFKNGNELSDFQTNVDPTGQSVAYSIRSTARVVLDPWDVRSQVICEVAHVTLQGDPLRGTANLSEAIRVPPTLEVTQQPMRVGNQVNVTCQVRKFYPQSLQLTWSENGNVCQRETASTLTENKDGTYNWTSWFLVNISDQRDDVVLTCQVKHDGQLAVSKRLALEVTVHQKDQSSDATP
Method: as §1

[3] = target: T3, human B7-H7-Fc chimera (R&D systems, Cat#8084-B7-050) (human, UniProt Q9UM44 23-344)
T3 construct: Purchased reagent coupled to Luminex microspheres; also called B7 homolog 7; not shown: Fc portion of the purchased chimera
T3 sequence (looked up): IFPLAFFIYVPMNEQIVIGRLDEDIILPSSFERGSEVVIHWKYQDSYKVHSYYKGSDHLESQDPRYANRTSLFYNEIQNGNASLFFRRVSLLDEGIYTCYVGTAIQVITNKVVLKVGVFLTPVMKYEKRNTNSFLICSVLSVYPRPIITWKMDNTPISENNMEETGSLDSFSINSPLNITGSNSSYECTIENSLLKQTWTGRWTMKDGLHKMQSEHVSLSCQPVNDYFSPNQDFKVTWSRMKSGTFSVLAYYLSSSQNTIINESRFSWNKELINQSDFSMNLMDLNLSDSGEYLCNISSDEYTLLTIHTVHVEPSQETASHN
Method: as §1

Measured: binding result

B1: AGEN2034w (antibody, human IgG4 S228P, kappa)
heavy: QVQLVESGGGVVQPGRSLRLSCAASGFTFSSYGMHWVRQAPGKGLEWVAVIWYDGSNKYYADSVKGRFTISRDNSKNTLYLQMNSLRAEDTAVYYCASNGDHWGQGTLVTVSSASTKGPSVFPLAPCSRSTSESTAALGCLVKDYFPEPVTVSWNSGALTSGVHTFPAVLQSSGLYSLSSVVTVPSSSLGTKTYTCNVDHKPSNTKVDKRV[letters of human IgG4 Fc with S228P (EU numbers) not shown]
light: EIVMTQSPATLSVSPGERATLSCRASQSVSSNLAWYQQKPGQAPRLLIYGASTRATGIPARFSGSGSGTEFTLTISSLQSEDFAVYYCQQYNNWPRTFGQGTKVEIKRTVAAPSVFIFPPSDEQLKSGTASVVCLLNNFYPREAKVQWKVDNALQSGNSQESVTEQDSKDSTYSLSSTLTLSKADYEKHKVYACEVTHQGLSSPVTKSFNRGEC
notes: also called BADD438-2744 (VH); 3738 (VL)
no binding (tested: up to 7.5 µg/ml): all assays above

From US20170081409A1 (AGENUS, published 2017)
